Measurements reported in PubChem BioAssay AID720709 (National Center for Advancing Translational Sciences (NCATS), 2013).
Out of some 360,000 compounds screened, about 520 (0.14%) were called active. Inconclusive results, whose numbers are uncertain, are shown with a selection of clear calls. Calls follow the shape of the dose curve; as a rule, active = well fitted inhibition curve with a large enough effect; inconclusive = small, poorly fitted or top-dose-only effect; inactive = no such curve, though single readings can be large or run the other way. No potency is given beside an inconclusive call; the fits are too rough.

molecular target: Rap guanine nucleotide exchange factor 3 (Homo sapiens) (UniProt O95398); assay: qHTS for Antagonist of cAMP-regulated guanine nucleotide exchange factor 3 (EPAC1): primary screen; conditions: EPAC1 GEF assay, Rap1b-BODIPY-GDP exchange fluorescence; activity change, negative = inhibition: at 115 µM (top of the series); also: nearly all actives have a fitted effect of over 50% in size;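 as to activity change, negative = inhibition: plate controls were vehicle for no effect and positive control for full effect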
Chain of UniProt O95398 (O95398 whole entry, looked up): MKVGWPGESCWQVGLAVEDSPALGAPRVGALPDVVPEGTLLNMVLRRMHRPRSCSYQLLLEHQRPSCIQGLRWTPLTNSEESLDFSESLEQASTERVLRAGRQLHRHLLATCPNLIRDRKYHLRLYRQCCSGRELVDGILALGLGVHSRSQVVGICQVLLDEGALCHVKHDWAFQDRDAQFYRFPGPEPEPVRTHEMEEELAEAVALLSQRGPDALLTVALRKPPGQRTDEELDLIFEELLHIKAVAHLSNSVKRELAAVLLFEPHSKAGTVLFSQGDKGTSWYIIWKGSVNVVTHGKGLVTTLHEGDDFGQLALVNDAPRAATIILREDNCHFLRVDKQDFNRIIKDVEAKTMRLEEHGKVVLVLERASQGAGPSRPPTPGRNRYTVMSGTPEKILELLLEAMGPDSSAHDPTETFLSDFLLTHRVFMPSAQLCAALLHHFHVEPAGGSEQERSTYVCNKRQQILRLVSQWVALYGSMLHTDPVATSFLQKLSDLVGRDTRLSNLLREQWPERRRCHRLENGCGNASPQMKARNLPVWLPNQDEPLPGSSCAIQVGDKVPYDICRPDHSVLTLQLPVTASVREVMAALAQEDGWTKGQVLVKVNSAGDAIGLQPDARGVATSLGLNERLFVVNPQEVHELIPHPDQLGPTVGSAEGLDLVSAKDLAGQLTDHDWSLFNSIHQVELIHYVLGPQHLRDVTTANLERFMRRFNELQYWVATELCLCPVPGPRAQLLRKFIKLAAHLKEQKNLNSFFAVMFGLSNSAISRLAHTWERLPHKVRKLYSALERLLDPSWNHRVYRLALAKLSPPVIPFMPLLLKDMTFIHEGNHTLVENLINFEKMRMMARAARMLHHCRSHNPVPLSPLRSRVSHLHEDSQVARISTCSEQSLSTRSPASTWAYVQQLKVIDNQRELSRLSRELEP
Potency is read from the fitted curve at half-maximal effect; tags tell the direction and shape of the fitted curve.

`Cc1ccc(NC(=O)CSc2nnc(-c3ccncc3)o2)cc1C` was tested. Which Potency did it give?
Its Potency is inconclusive [inhibitor, partial curve].

With `COc1ccccc1CC(=O)Nc1ccc([N+](=O)[O-])cc1O` as the compound, how does the Potency read?
The Potency was inconclusive [inhibitor, partial curve, poor fit].

How did the “activity change, negative = inhibition” value turn out when `COC(=O)Nc1ccc2ccc3c(NC(=O)OC)ccc4ccc1c2c43` was run?
The value was inactive: 4.51%.

`O=C(CCSc1ccccc1)NC(=O)COC(=O)C1CCCCC1` was tested. Which Potency did it give?
The Potency was inconclusive [inhibitor, single point].

Which Potency does the source give for `O=C(c1ccc(Cl)c(S(=O)(=O)N2CCOCC2)c1)N1CCN(c2ccccc2)CC1` here?
The Potency was inconclusive [inhibitor, single point].

With `CCC(C)(C)C1CCC2(CC1)NC(=O)N(CC(=O)N1CCN(c3ccccc3OC)CC1)C2=O` (stereo unspecified) as the compound, how does the “activity change, negative = inhibition” value read?
The value was inactive: 0.803%.

How did the Potency turn out when `COc1ccc(-c2ccoc2)cc1[C@H]1[C@H]2C=CC[C@@H](C)[C@@H]2C(=O)N1Cc1ccccc1` was run?
Its Potency is inconclusive [inhibitor, full curve, poor fit].

For `COc1ccc(CC(N)c2csc(NC(=O)Nc3ccc(C(C)C)cc3)n2)cc1` (stereo unspecified), which “activity change, negative = inhibition” value is on record?
Its value is inactive: -15.8%.

How did the Potency turn out when `CC(=O)NCCNc1ccc([N+](=O)[O-])cc1C#N` was run?
Its Potency is inconclusive [inhibitor, single point].

Which Potency does the source give for `C/C(=N\NC(=O)c1ccccc1)c1ccccc1Br` here?
The Potency was inconclusive [inhibitor, partial curve].

Which Potency does the source give for `Cc1ccc(NC(=O)c2cc(S(=O)(=O)N3CCc4ccccc43)cn2C)cc1` here?
Its Potency is inconclusive [inhibitor, partial curve].

For `COc1ccccc1NC(=O)C/C(C)=N/NC(=O)C12CC3CC(CC(C3)C1)C2`, which Potency is on record?
Its Potency is inconclusive [inhibitor, single point].

`Cc1ccc(NC(=S)NCc2cccs2)cc1` was tested. Which Potency did it give?
Its Potency is inconclusive [inhibitor, partial curve, poor fit].

`CS(=O)(=O)c1ccc(NS(=O)(=O)c2ccc(Cl)c(C(=O)NCc3ccco3)c2)cc1` was tested. Which “activity change, negative = inhibition” value did it give?
The value was inactive: -16.7%.

`Cc1cccnc1NC(=O)NC(=O)c1ccc(C(C)(C)C)s1` was tested. Which “activity change, negative = inhibition” value did it give?
Its value is inactive: -21.1%.

How did the Potency turn out when `CN(C)c1ccc(C=NNc2ccccn2)c(Cl)c1` was run?
The Potency was inconclusive [inhibitor, full curve, poor fit].

`CC1Cc2cc(/C=C3/SC(=S)NC3=O)ccc2O1` (stereo unspecified) was tested. Which Potency did it give?
The Potency was inconclusive [inhibitor, partial curve, poor fit].

`O=C(CSc1ncn[nH]1)N1N=C2/C(=C/c3ccco3)CCCC2C1c1ccco1` (stereo unspecified) was tested. Which Potency did it give?
The Potency was inconclusive [inhibitor, single point].

How did the Potency turn out when `CN(C(=O)c1ccco1)c1nc(-c2ccc(Cl)cc2)cs1` was run?
The Potency was inconclusive [inhibitor, single point].

For `CCOC(=O)c1nnc(-c2ccccc2)nc1NCc1ccc(Cl)cc1`, which activity change, negative = inhibition is on record?
The activity change, negative = inhibition was inconclusive: -15.2% [inhibitor].

`Cc1ccc(C2=NN(C(=O)c3ccccc3F)C(c3ccccc3F)C2)cc1` (stereo unspecified) was tested. Which activity change, negative = inhibition did it give?
Its activity change, negative = inhibition is inconclusive: -17.5% [inhibitor].

With `CCN(CC(=O)Nc1cc(S(=O)(=O)N2CCOCC2)ccc1Cl)Cc1ccccc1` as the compound, how does the Potency read?
Its Potency is inconclusive [inhibitor, single point].

For `Cc1ccc(NC(=O)c2cc(N3C(=O)C=CC3=O)ccc2Cl)cc1C`, which Potency is on record?
The Potency was inconclusive [inhibitor, single point].

Which “activity change, negative = inhibition” value does the source give for `O=C(O)C1CC=CCC1C(=O)NNc1c(Cl)cc(Cl)cc1Cl` (stereo unspecified) here?
The value was inactive: 0.171%.

For `O=C(Cn1cnc2c(oc3nc4c(cc32)CCCC4)c1=O)Nc1cccc(Cl)c1`, which Potency is on record?
The Potency was inconclusive [inhibitor, single point].

How did the Potency turn out when `C[C@]12c3[nH]c4ccc(Cl)cc4c3CCN1C(=O)[C@@H](CC(=O)NCC13CC4CC(CC(C4)C1)C3)C[C@@H]2C(=O)N1CCOCC1` was run?
Its Potency is inconclusive [inhibitor, partial curve].

`O=C(NC(Cc1c[nH]c2ccccc12)C(=O)Nc1ccc(F)cc1)c1cccs1` (stereo unspecified) was tested. Which Potency did it give?
Its Potency is inconclusive [inhibitor, full curve, poor fit].

With `CCC(C)(C)c1ccc(OCC(=O)N(C)C)c(C(C)(C)CC)c1` as the compound, how does the Potency read?
Its Potency is inconclusive [inhibitor, full curve].

With `COc1ccc(S(=O)(=O)N2CCOCC2)cc1NC(=O)C1COc2ccccc2O1` (stereo unspecified) as the compound, how does the Potency read?
Its Potency is inconclusive [inhibitor, single point].

How did the “activity change, negative = inhibition” value turn out when `O=C(NC12CC3CC(CC(C3)C1)C2)c1ccc(S(=O)(=O)N2CCOCC2)cc1` was run?
Its value is inactive: -6.95%.

With `O=C(CSc1cccc[n+]1[O-])Nc1ccccc1Oc1ccccc1` as the compound, how does the “activity change, negative = inhibition” value read?
Its value is inactive: 2.24%.

Which Potency does the source give for `O=C(Oc1ccc(-c2nnco2)cc1)C1CCN(C(=O)c2ccc(F)cc2)CC1` here?
Its Potency is inconclusive [inhibitor, partial curve].

How did the Potency turn out when `Cc1cc(/C=N/Nc2ccc([N+](=O)[O-])cn2)c(C)n1-c1cccc(C(=O)O)c1` was run?
Its Potency is inconclusive [inhibitor, partial curve].

`CCCN(Cc1cc2ccc(C)cc2[nH]c1=O)C(=O)c1ccccn1` was tested. Which “activity change, negative = inhibition” value did it give?
Its value is inactive: -6.93%.

For `COc1ccc(OCCSc2nnnn2C2CCCCC2)cc1`, which Potency is on record?
The Potency was inconclusive [inhibitor, partial curve].

`Oc1ccccc1/C=N/Nc1cc(N2CCCC2)nc(N2CCCC2)n1` was tested. Which “activity change, negative = inhibition” value did it give?
The value was inactive: -15%.

`O=[N+]([O-])c1cccc(-c2csc(N/N=C/c3cccc(O)c3)n2)c1` was tested. Which activity change, negative = inhibition did it give?
The activity change, negative = inhibition was inconclusive: -19.7% [inhibitor].

For `O=C(NNC(=O)c1ccc2nc[nH]c2c1)c1ccccc1`, which “activity change, negative = inhibition” value is on record?
The value was inactive: -2.49%.

`COc1ccc(-c2csc(NC(=O)c3ccc(C(C)(C)C)cc3)c2C(=O)O)cc1` was tested. Which Potency did it give?
Its Potency is inconclusive [inhibitor, single point].

For `Cc1ccc(CSCC(=O)Nc2cc(S(=O)(=O)N3CCOCC3)ccc2OCC(F)(F)F)cc1`, which Potency is on record?
Its Potency is inconclusive [inhibitor, partial curve].

Which “activity change, negative = inhibition” value does the source give for `O=C(Nc1ccc(F)cc1)C(c1ccncc1)N1CCN(CC(=O)N2CCCC2)CC1` (stereo unspecified) here?
The value was inactive: -22.2%.

`Cc1cc2ccccc2n1CCNC(=O)c1ccc(Br)o1` was tested. Which “activity change, negative = inhibition” value did it give?
Its value is inactive: -26.5%.

`CCc1nc2c(sc3nc4c(cc32)COC(C)(C)C4)c(=O)n1CCN(CC)CC` was tested. Which Potency did it give?
Its Potency is inconclusive [inhibitor, partial curve].

How did the “activity change, negative = inhibition” value turn out when `CC1CN(C2CCN(S(=O)(=O)c3ccccc3)CC2)CC(C)O1` (stereo unspecified) was run?
The value was inactive: 0.361%.

Which “activity change, negative = inhibition” value does the source give for `CCN1CCN(S(=O)(=O)c2ccc(OC)c(Br)c2)CC1` here?
Its value is inactive: 4.42%.

For `COc1ccc(O)c(C(c2c(C)[nH][nH]c2=O)c2c(C)[nH][nH]c2=O)c1`, which Potency is on record?
Its Potency is inconclusive [inhibitor, single point].

With `CN(CC(=O)Nc1ccc(Cl)c(C(F)(F)F)c1)C(=O)C1CC(=O)N(c2ccc3c(c2)OCCO3)C1` (stereo unspecified) as the compound, how does the “activity change, negative = inhibition” value read?
The value was inactive: -15.4%.

With `COC(=O)c1cn(C(=O)c2cc(C)cc(C)c2)c2ccccc12` as the compound, how does the “activity change, negative = inhibition” value read?
Its value is inactive: -19%.

For `Cc1ccc([N+](=O)[O-])c(OCCN2C(=O)NC(C)(C)C2=O)c1`, which Potency is on record?
The Potency was inconclusive [inhibitor, single point].

With `CN(C)S(=O)(=O)c1cccc(NC(=O)CC23CC4CC(CC(C4)C2)C3)c1` as the compound, how does the activity change, negative = inhibition read?
The activity change, negative = inhibition was inconclusive: -30.6% [inhibitor].

`NS(=O)(=O)c1ccc(CNC(=S)NCc2ccc(Cl)cc2)cc1` was tested. Which Potency did it give?
The Potency was inconclusive [inhibitor, partial curve, poor fit].

`C=CC(=O)N1C/C(=C/c2ccc(F)cc2)C(=O)/C(=C\c2ccc(F)cc2)C1` was tested. Which Potency did it give?
Its Potency is inconclusive [inhibitor, full curve, poor fit].

Which Potency does the source give for `Cc1ccc(C2=NNC(=Nc3ccc(F)cc3)SC2)cc1` here?
The Potency was inconclusive [inhibitor, partial curve, poor fit].

`O=C1N[C@@H](Cc2c[nH]c3ccccc23)COC(=O)[C@@H](Cc2ccc(F)cc2)C/C=C\C[C@H]1CC(=O)N(CCO)Cc1ccccc1` was tested. Which Potency did it give?
The Potency was inconclusive [inhibitor, partial curve].

Which “activity change, negative = inhibition” value does the source give for `CC(=O)Nc1ccc(N2C(=O)c3ccc(S(=O)(=O)c4ccc(C(=O)O)cc4)cc3C2=O)cc1` here?
The value was inactive: 4.56%.

Which Potency does the source give for `CCC(C(=O)NC(C)(C)C)N(Cc1ccc(F)cc1)C(=O)c1snc(C(N)=O)c1N` (stereo unspecified) here?
The Potency was inconclusive [inhibitor, single point].

How did the Potency turn out when `CCOC(=O)N1CCC(Nc2c(NCCN3CCN(c4cccc(Cl)c4)CC3)c(=O)c2=O)CC1` was run?
The Potency was inconclusive [inhibitor, single point].

Which Potency does the source give for `O=C(Nc1c2c(nc3ccccc13)CCCC2)c1ccccc1F` here?
Its Potency is inconclusive [inhibitor, single point].

With `O=C(CS(=O)(=O)c1ccccc1)c1cc2cc(F)ccc2oc1=O` as the compound, how does the Potency read?
The Potency was inconclusive [inhibitor, partial curve].

Which “activity change, negative = inhibition” value does the source give for `C[n+]1ccc(/C=C/c2c[nH]c3ccc(F)cc23)cc1` here?
Its value is inactive: -1.03%.

For `O=C(NCc1nc2ccccc2[nH]1)C1=C[C@H](c2ccccc2)C[C@H](OCc2ccc(CO)cc2)O1`, which Potency is on record?
Its Potency is inconclusive [inhibitor, partial curve].

How did the “activity change, negative = inhibition” value turn out when `Cc1cccc(C)c1NC(=O)C(c1ccc(C#N)cc1)n1c(=O)c(-c2cc3ccccc3[nH]2)nc2ccccc21` (stereo unspecified) was run?
The value was inactive: -4.18%.

`O=C(N/N=C/c1ccco1)c1cccc(N2Cc3ccccc3C2)c1` was tested. Which Potency did it give?
Its Potency is inconclusive [inhibitor, partial curve].

For `C=CCn1c(SCC(=O)c2[nH]c(C)c(C(=O)OCC)c2C)nc2scc(-c3ccc(OC)c(OC)c3)c2c1=O`, which Potency is on record?
Its Potency is inconclusive [inhibitor, single point].

`N/C(=N\OC(=O)C(c1ccccc1)c1ccccc1)c1cccnc1` was tested. Which “activity change, negative = inhibition” value did it give?
The value was inactive: -1.92%.

Which Potency does the source give for `O=C1NN(c2ccc(Cl)cc2)C(=O)/C1=C\c1ccc(-c2cccc(C(=O)O)c2)o1` here?
Its Potency is inconclusive [inhibitor, partial curve].
